# Some of the results follow.
# B1: PfulAvr4 2 (Pseudocercospora fuligena) (protein)
# chain: HHHHHHDYKDDDDKAKPIKPFACPPKDFTTTKCQGPVDCLYANPLSCLGYIQCVCDDDACSTATPYAKSCPTGLAWVEKLKRCDGIKKSACPKKMYEGS
# Legend:
# Experiment in all cases: glycan array binding signal (z-score within array); higher = stronger binding
# Conditions in all cases: glycan notation: IUPAC condensed, linker removed
# [1] = target: Neu5Ac(a2-3)Gal(b1-4)GlcNAc(b1-2)[Neu5Ac(a2-3)Gal(b1-4)GlcNAc(b1-4)]Man(a1-3)[GlcNAc(b1-4)][Neu5Ac(a2-3)Gal(b1-4)GlcNAc(b1-2)[Neu5Ac(a2-3)Gal(b1-4)GlcNAc(b1-6)]Man(a1-6)]Man(b1-4)GlcNAc(b1-4)GlcNAc
# Method in brief: (§1)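 The Consortium for Functional Glycomics database supplied 3228 glycan arrays, of which those lacking an available protein sequence were dropped. The binding signal, a within-array Z-score, was averaged across arrays of the same protein sequence and across linkers. Negative scores can be read as non-binding.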
# [2] = target: Neu5Ac(a2-3)Gal(b1-4)GlcNAc(b1-2)[Neu5Ac(a2-3)Gal(b1-4)GlcNAc(b1-4)]Man(a1-3)[GlcNAc(b1-4)][Neu5Ac(a2-3)Gal(b1-4)GlcNAc(b1-4)Man(a1-6)]Man(b1-4)GlcNAc(b1-4)GlcNAc
# Method in brief: as §1
# [3] = target: Neu5Ac(a2-3)Gal(b1-4)GlcNAc(b1-2)[Neu5Ac(a2-3)Gal(b1-4)GlcNAc(b1-6)]Man(a1-6)[Neu5Ac(a2-3)Gal(b1-4)GlcNAc(b1-2)Man(a1-3)][GlcNAc(b1-4)]Man(b1-4)GlcNAc(b1-4)GlcNAc
# Method in brief: as §1
# [4] = target: Neu5Ac(a2-3)Gal(b1-4)GlcNAc(b1-3)Gal
# Method in brief: as §1
# [5] = target: Neu5Ac(a2-3)Gal(b1-4)GlcNAc(b1-3)Gal(b1-3)GlcNAc
# Method in brief: as §1
# [6] = target: Neu5Ac(a2-3)Gal(b1-4)GlcNAc(b1-3)Gal(b1-4)GlcNAc
# Method in brief: as §1
# [7] = target: Neu5Ac(a2-3)Gal(b1-4)GlcNAc(b1-3)Gal(b1-4)GlcNAc(b1-2)Man(a1-3)[Neu5Ac(a2-3)Gal(b1-4)GlcNAc(b1-3)Gal(b1-4)GlcNAc(b1-2)Man(a1-6)]Man(b1-4)GlcNAc(b1-4)GlcNAc
# Method in brief: as §1
# [8] = target: Neu5Ac(a2-3)Gal(b1-4)GlcNAc(b1-3)Gal(b1-4)GlcNAc(b1-3)Gal(b1-4)GlcNAc
# Method in brief: as §1
# [9] = target: Neu5Ac(a2-3)Gal(b1-4)GlcNAc(b1-3)Gal(b1-4)GlcNAc(b1-3)Gal(b1-4)GlcNAc(b1-2)Man(a1-3)[Neu5Ac(a2-3)Gal(b1-4)GlcNAc(b1-3)Gal(b1-4)GlcNAc(b1-3)Gal(b1-4)GlcNAc(b1-2)Man(a1-6)]GalNAc
# Method in brief: as §1
# [10] = target: Neu5Ac(a2-3)Gal(b1-4)GlcNAc(b1-3)Gal(b1-4)GlcNAc(b1-3)GalNAc
# Method in brief: as §1
# [11] = target: Neu5Ac(a2-3)Gal(b1-4)GlcNAc(b1-3)Gal(b1-4)GlcNAc(b1-3)[Neu5Ac(a2-3)Gal(b1-4)GlcNAc(b1-3)Gal(b1-4)GlcNAc(b1-6)]GalNAc
# Method in brief: as §1
# [12] = target: Neu5Ac(a2-3)Gal(b1-4)GlcNAc(b1-3)Gal(b1-4)GlcNAc(b1-6)[Gal(b1-3)]GalNAc
# Method in brief: as §1
# [13] = target: Neu5Ac(a2-3)Gal(b1-4)GlcNAc(b1-3)Gal(b1-4)[Fuc(a1-3)]GlcNAc
# Method in brief: as §1
# [14] = target: Neu5Ac(a2-3)Gal(b1-4)GlcNAc(b1-3)GalNAc
# Method in brief: as §1
# [15] = target: Neu5Ac(a2-3)Gal(b1-4)GlcNAc(b1-3)[Neu5Ac(a2-3)Gal(b1-4)GlcNAc(b1-6)]GalNAc
# Method in brief: as §1
# [16] = target: Neu5Ac(a2-3)Gal(b1-4)GlcNAc(b1-6)GalNAc
# Method in brief: as §1
# [17] = target: Neu5Ac(a2-3)Gal(b1-4)GlcNAc(b1-6)[Gal(b1-3)]GalNAc
# Method in brief: as §1
# [18] = target: Neu5Ac(a2-3)Gal(b1-4)GlcNAc(b1-6)[Neu5Ac(a2-3)Gal(b1-3)]GalNAc
# Method in brief: as §1
# [19] = target: Neu5Ac(a2-3)Gal(b1-4)GlcNAc6S
# Method in brief: as §1
# [20] = target: Neu5Ac(a2-3)Gal(b1-4)[Fuc(a1-3)]GlcNAc
# Method in brief: as §1
# [21] = target: Neu5Ac(a2-3)Gal(b1-4)[Fuc(a1-3)]GlcNAc(b1-2)Man
# Method in brief: as §1
# [22] = target: Neu5Ac(a2-3)Gal(b1-4)[Fuc(a1-3)]GlcNAc(b1-3)Gal
# Method in brief: as §1
# [23] = target: Neu5Ac(a2-3)Gal(b1-4)[Fuc(a1-3)]GlcNAc(b1-3)Gal(b1-4)GlcNAc
# Method in brief: as §1
# [24] = target: Neu5Ac(a2-3)Gal(b1-4)[Fuc(a1-3)]GlcNAc(b1-3)Gal(b1-4)[Fuc(a1-3)]GlcNAc(b1-3)Gal(b1-4)[Fuc(a1-3)]GlcNAc
# Method in brief: as §1
# [25] = target: Neu5Ac(a2-3)Gal(b1-4)[Fuc(a1-3)]GlcNAc(b1-3)GalNAc
# Method in brief: as §1
# [26] = target: Neu5Ac(a2-3)Gal(b1-4)[Fuc(a1-3)]GlcNAc(b1-6)[Gal(b1-3)]GalNAc
# Method in brief: as §1
# [27] = target: Neu5Ac(a2-3)Gal(b1-4)[Fuc(a1-3)]GlcNAc(b1-6)[Neu5Ac(a2-3)Gal(b1-3)]GalNAc
# Method in brief: as §1
# [28] = target: Neu5Ac(a2-3)Gal(b1-4)[Fuc(a1-3)]GlcNAc6S
# Method in brief: as §1
# [29] = target: Neu5Ac(a2-3)Gal6S(b1-4)GlcNAc
# Method in brief: as §1
# [30] = target: Neu5Ac(a2-3)Gal6S(b1-4)[Fuc(a1-3)]GlcNAc
# Method in brief: as §1
# Neu5Ac(a2-3)GalNAc = target: Neu5Ac(a2-3)GalNAc
# Method in brief: as §1
# [31] = target: Neu5Ac(a2-3)GalNAc(b1-4)GlcNAc
# Method in brief: as §1
# [32] = target: Neu5Ac(a2-3)[GalNAc(b1-4)]Gal(b1-4)Glc
# Method in brief: as §1
# [33] = target: Neu5Ac(a2-3)[GalNAc(b1-4)]Gal(b1-4)GlcNAc
# Method in brief: as §1
# [34] = target: Neu5Ac(a2-3)[GalNAc(b1-4)]Gal(b1-4)GlcNAc(b1-3)GalNAc
# Method in brief: as §1
# [35] = target: Neu5Ac(a2-3)[Neu5Ac(a2-6)]GalNAc
# Method in brief: as §1
# Neu5Ac(a2-6)Gal = target: Neu5Ac(a2-6)Gal
# Method in brief: as §1
# [36] = target: Neu5Ac(a2-6)Gal(b1-3)GlcNAc(b1-3)[Gal(b1-4)GlcNAc(b1-6)]Gal(b1-4)Glc
# Method in brief: as §1
# Neu5Ac(a2-6)Gal(b1-4)Glc = target: Neu5Ac(a2-6)Gal(b1-4)Glc
# Method in brief: as §1
# [37] = target: Neu5Ac(a2-6)Gal(b1-4)GlcNAc
# Method in brief: as §1
# [38] = target: Neu5Ac(a2-6)Gal(b1-4)GlcNAc(b1-2)Man
# Method in brief: as §1
# [39] = target: Neu5Ac(a2-6)Gal(b1-4)GlcNAc(b1-2)Man(a1-3)Man(b1-4)GlcNAc(b1-4)GlcNAc
# Method in brief: as §1
# [40] = target: Neu5Ac(a2-6)Gal(b1-4)GlcNAc(b1-2)Man(a1-3)[Gal(b1-4)GlcNAc(b1-2)Man(a1-6)]Man(b1-4)GlcNAc(b1-4)GlcNAc
# Method in brief: as §1
# [41] = target: Neu5Ac(a2-6)Gal(b1-4)GlcNAc(b1-2)Man(a1-3)[GlcNAc(b1-2)Man(a1-6)]Man(b1-4)GlcNAc(b1-4)GlcNAc
# Method in brief: as §1
# [42] = target: Neu5Ac(a2-6)Gal(b1-4)GlcNAc(b1-2)Man(a1-3)[GlcNAc(b1-4)][Neu5Ac(a2-6)Gal(b1-4)GlcNAc(b1-2)Man(a1-6)]Man(b1-4)GlcNAc(b1-4)GlcNAc
# Method in brief: as §1
binder,measurement,setting,value
B1,glycan array binding signal (z-score),[1],-0.21
same,glycan array binding signal (z-score),[2],-0.253
same,glycan array binding signal (z-score),[3],-0.258
same,glycan array binding signal (z-score),[4],-0.42
same,glycan array binding signal (z-score),[5],-0.328
same,glycan array binding signal (z-score),[6],-0.163
same,glycan array binding signal (z-score),[7],-0.146
same,glycan array binding signal (z-score),[8],-0.253
same,glycan array binding signal (z-score),[9],0.162
same,glycan array binding signal (z-score),[10],-0.259
same,glycan array binding signal (z-score),[11],-0.158
same,glycan array binding signal (z-score),[12],-0.409
same,glycan array binding signal (z-score),[13],-0.257
same,glycan array binding signal (z-score),[14],-0.13
same,glycan array binding signal (z-score),[15],-0.217
same,glycan array binding signal (z-score),[16],-0.202
same,glycan array binding signal (z-score),[17],1.5
same,glycan array binding signal (z-score),[18],-0.285
same,glycan array binding signal (z-score),[19],-0.19
same,glycan array binding signal (z-score),[20],-0.366
same,glycan array binding signal (z-score),[21],-0.294
same,glycan array binding signal (z-score),[22],-0.308
same,glycan array binding signal (z-score),[23],0.017
same,glycan array binding signal (z-score),[24],-0.373
same,glycan array binding signal (z-score),[25],0.545
same,glycan array binding signal (z-score),[26],-0.285
same,glycan array binding signal (z-score),[27],-0.281
same,glycan array binding signal (z-score),[28],-0.309
same,glycan array binding signal (z-score),[29],-0.482
same,glycan array binding signal (z-score),[30],-0.235
same,glycan array binding signal (z-score),Neu5Ac(a2-3)GalNAc,0.081
same,glycan array binding signal (z-score),[31],-0.242
same,glycan array binding signal (z-score),[32],-0.366
same,glycan array binding signal (z-score),[33],-0.373
same,glycan array binding signal (z-score),[34],-0.303
same,glycan array binding signal (z-score),[35],-0.254
same,glycan array binding signal (z-score),Neu5Ac(a2-6)Gal,-0.44
same,glycan array binding signal (z-score),[36],-0.364
same,glycan array binding signal (z-score),Neu5Ac(a2-6)Gal(b1-4)Glc,-0.245
same,glycan array binding signal (z-score),[37],-0.318
same,glycan array binding signal (z-score),[38],0.412
same,glycan array binding signal (z-score),[39],-0.224
same,glycan array binding signal (z-score),[40],0.229
same,glycan array binding signal (z-score),[41],-0.263
same,glycan array binding signal (z-score),[42],-0.304
